# From the supplement of paper PMC12217912
# Some of the results follow. The full chains were built here from the parent and the listed change. Values near 0.05 are background.
# B1: TEV protease; numbered along this chain (parent)
# chain: MGESLFKGPRDYNPISSSICHLTNESDGHTTSLYGIGFGPFIITNKHLFRRNNGTLVVQSLHGVFKVKDTTTLQQHLVDGRDMIIIRMPKDFPPFPQKLKFREPQREERICLVTTNFQTKSMSSMVSDTSCTFPSGDGIFWKHWIQTKDGQCGSPLVSTRDGFIVGIHSASNFTNTNNYFTSVPKNFMELLTNQEAQQWVSGWRLNADSVLWGGHKVFMVKPEEPFQPVKEATQL
# Variants of: B1
# Assay: raw area under fraction-flipped curve 0-4 h after induction (AUC4h, not background-subtracted), DNA-recorder readout of cleavage of the substrate (dimensionless); higher = more cleavage of the substrate by the protease variant
# Conditions: temperature: 34 °C; time window: 0-4 h after rhamnose induction
# Procedure: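 In vivo DNA recorder in E. coli TOP10(DE3) ΔrhaA at 34 °C. Each TEVp single-site mutant (parent TEVp 0) is paired with a single-site variant of the 7-mer TEVs (canonical ENLYFQ|S). The substrate sits between flexible linkers in a Bxb1-sfGFP-TEVs-SsrA fusion, so cleavage stabilises Bxb1 and speeds flipping of a recombination array, read by NGS. The value is the raw area under the fraction-flipped curve over 0-4 h after rhamnose induction (AUC4h), with ≥20 reads per time point. It is not background-subtracted; inactive controls average about 0.047.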
# 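Further: Bxb1 expression induced with 0.2% (w/v) L-rhamnose at OD600 near 0.5, cultures sampled hourly, flipped fraction per protease–substrate barcode pair counted by paired-end Illumina sequencing.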
Variant,area with substrate ECLYFQS,area with substrate EELYFQS,area with substrate EFLYFQS,area with substrate EHLYFQS,area with substrate EILYFQS,area with substrate EKLYFQS,area with substrate ELLYFQS,area with substrate EMLYFQS,area with substrate EPLYFQS,area with substrate EQLYFQS,area with substrate ERLYFQS,area with substrate ESLYFQS,area with substrate EVLYFQS,area with substrate EWLYFQS,area with substrate EYLYFQS,area with substrate EGLYFQS,area with substrate ETLYFQS,area with substrate EDLYFQS
H47Y,0.057,0.0659,0.0565,0.0479,0.0619,0.0542,0.0287,0.0592,0.0529,0.0668,0.0255,0.0564,0.0502,0.0604,0.0727,,,
H47N,0.0535,0.0441,,0.0616,0.0521,,0.0628,0.0488,0.0606,0.0576,0.0446,0.0635,0.0506,,0.0563,0.0475,0.0789,
H47L,0.0577,0.0543,,0.0519,0.0437,0.0575,0.0578,,0.112,0.0622,0.0543,0.0586,0.0578,0.0514,0.0667,0.0505,,0.0566
G28C,0.0755,0.102,,0.0985,0.0793,0.106,0.0715,0.0928,,0.103,,0.0844,0.081,0.0667,0.122,0.0778,,0.0663
D27A,0.0892,,0.0751,0.114,0.102,0.11,,0.0856,0.108,0.0946,,0.0899,0.0837,0.0897,0.0991,0.0805,,0.109
C111L,0.108,0.137,0.0998,0.104,0.106,,0.116,0.109,,0.113,0.0389,0.112,0.143,0.0863,0.064,,,
E107W,0.0829,,0.123,,0.0936,0.09,,,0.14,,0.0966,0.122,0.0933,,,0.113,0.112,0.125
Q118T,0.121,,,0.125,0.113,,,,0.0939,0.102,,0.098,0.0902,0.122,0.0951,0.0727,,
K68T,0.113,,0.0608,0.116,0.117,,0.112,0.113,,0.141,,0.0941,,0.106,0.118,0.0962,,
T129Q,0.0853,0.118,,,0.0975,,0.0753,0.102,,,0.0728,0.108,0.121,0.0853,0.111,,,
T44K,0.0447,,0.0449,,0.0406,0.051,0.0532,0.0447,0.0506,0.0476,0.0477,0.0337,0.0433,,0.05,,,
K66P,0.104,,,,0.0968,0.0841,0.0923,0.0954,0.0963,,,0.0953,0.0832,0.0575,,,0.109,
C20F,0.0765,0.0803,,0.0508,0.0677,0.0937,,0.0602,0.0821,0.0688,0.0683,0.0611,,,0.066,0.0625,,0.072
H21W,0.131,0.141,,0.114,0.091,0.122,0.0999,0.115,0.118,0.141,0.102,0.0839,0.0958,0.0903,,0.103,0.149,0.104
L22V,0.0949,0.108,,,0.0808,0.0789,0.0888,0.113,0.0901,0.122,0.107,0.101,0.0907,0.0755,0.0992,0.0798,0.115,
R51A,0.102,,,,0.0877,0.175,,0.0997,,,0.093,0.117,0.0987,,0.105,0.0852,0.118,0.174
K98I,0.0936,,,0.0952,0.0926,0.127,0.077,0.102,0.135,0.103,0.102,0.107,0.101,0.0705,,0.0919,0.113,0.122
F92H,0.0995,,,0.144,,0.096,0.112,,0.0893,,0.109,,0.0943,,,0.103,0.131,0.127
D69W,0.0686,0.103,,0.0897,,0.0817,0.119,0.0825,0.0868,,,0.0772,,,,0.107,,0.0826
F41W,0.0364,0.0951,,,,0.0959,0.0642,0.0895,0.0953,0.0845,0.0833,0.0782,0.0725,0.0663,,,0.0487,0.0965
Q74V,0.0736,0.0869,0.0659,0.0799,0.057,,,0.061,0.0771,0.0685,,0.0669,0.0736,,0.0787,0.0665,,0.0852
V67D,0.0725,,,,0.0545,0.085,0.0681,0.0693,0.113,0.064,0.0695,0.0597,0.0519,0.0646,,,0.0622,0.0683
V126M,0.113,0.136,0.117,0.09,0.0991,,0.0859,0.12,,,0.127,0.115,0.0831,,,,,
V126N,0.102,0.131,0.0539,0.135,0.111,0.127,,0.12,0.147,0.131,0.129,0.12,0.113,0.0894,,,,0.129
S32H,0.111,0.103,0.105,0.0948,0.0884,0.0938,0.0841,,,0.115,0.0873,0.109,0.0926,0.103,0.105,0.0872,,0.128
H62V,0.111,0.113,0.0649,0.103,,,,,0.122,,0.0948,0.0901,,,,,0.0973,0.14
R102T,0.0492,0.0484,0.0539,,0.0599,,0.0314,0.0628,0.0469,0.0536,0.0608,0.0556,0.0535,,0.0537,,,0.0451

Variant,area with substrate ECLYFQS,area with substrate EELYFQS,area with substrate EFLYFQS,area with substrate EHLYFQS,area with substrate EILYFQS,area with substrate EKLYFQS,area with substrate ELLYFQS,area with substrate EMLYFQS,area with substrate EPLYFQS,area with substrate EQLYFQS,area with substrate ERLYFQS,area with substrate ESLYFQS,area with substrate EVLYFQS,area with substrate EWLYFQS,area with substrate EYLYFQS,area with substrate EGLYFQS,area with substrate ETLYFQS,area with substrate EDLYFQS
V57L,0.146,,,,0.102,0.125,0.0757,0.0992,0.111,,0.111,0.121,0.109,0.108,,,,0.14
V57W,0.104,0.115,0.108,,0.109,0.12,0.106,,,0.128,0.0861,0.0979,0.0975,0.0849,0.0326,0.0875,0.107,
T30W,0.131,0.133,,0.102,0.0918,0.125,0.0972,0.116,,0.109,0.125,0.123,0.101,0.096,0.103,0.0921,0.169,
K46P,0.0641,0.077,,0.0848,0.0552,0.0622,0.0655,,0.057,0.102,0.0649,0.0645,0.0565,0.0654,0.0637,,0.0687,0.0758
E25P,0.0616,,0.0666,,0.0721,0.0734,0.0739,0.0613,,0.0781,0.0629,0.0629,,0.055,0.0679,0.0546,0.0502,0.069
F49P,0.0248,0.0502,0.0623,0.0613,0.0504,,0.0619,0.0493,0.0607,0.0845,0.0646,0.0521,0.0565,0.0565,0.0448,0.0612,0.0571,0.0489
P94I,0.113,,,,,0.089,0.109,0.168,0.0724,,,0.0933,0.0954,0.083,0.0744,0.0961,,0.135
K142S,0.073,,,,0.0844,,,,0.0936,0.114,0.0934,0.092,0.0857,,,0.0941,0.0982,0.114
S26K,0.0762,0.0603,,,0.0601,0.0899,0.0712,0.0674,0.0629,0.0783,0.0758,0.0656,0.0612,,0.0749,0.0622,0.0665,0.0634
S26F,0.0811,0.0977,,,0.0815,0.0789,0.088,0.0894,,0.0844,0.0891,0.0685,0.0773,,0.123,,0.0834,0.1
T55G,0.104,0.0708,,,0.0706,0.0784,0.106,0.112,0.102,,,0.0939,0.0783,,0.0762,,,0.102
F133N,0.13,0.123,0.114,,,0.113,0.102,0.091,,0.111,0.129,0.106,0.0856,0.135,0.0901,0.11,,
T31P,0.0724,,,0.0758,0.0558,0.0536,0.0824,0.055,0.062,0.069,0.0556,0.0701,0.0432,0.0735,,0.0588,0.0602,0.0867
V78F,0.0936,,0.0965,,0.0847,0.0819,,,0.115,,0.104,0.101,0.0832,0.0799,0.0825,,,0.0945
V78S,0.0664,,0.0867,0.0631,0.0548,0.0663,0.0559,0.0853,0.0698,0.0814,0.0747,0.0708,0.064,0.056,0.0699,0.0683,0.0677,
S123A,0.12,0.048,0.0808,,0.102,0.11,,0.0764,,0.129,0.109,0.104,0.102,0.0628,0.104,0.0966,0.153,0.158
S123M,0.122,,0.109,,,0.105,,,0.0914,0.133,0.0913,0.117,0.115,0.102,0.121,0.0881,,
D91P,0.105,,0.14,0.109,,,,0.16,,0.116,0.146,0.0975,0.0904,,,,,
G39W,0.0558,0.0483,,0.0344,0.0363,0.0195,0.0386,,,0.0518,0.0482,0.0402,0.0472,0.0395,,0.0505,0.0506,0.0469
I139A,0.0796,0.127,0.113,0.162,0.101,,0.114,,0.108,0.131,0.108,0.0885,0.0586,,0.0862,0.105,0.0986,
S127P,0.0979,0.122,,0.128,0.107,0.0788,,,0.104,0.109,0.094,0.114,,0.1,0.0404,0.103,,0.141
F38P,0.0452,0.0508,,0.0301,0.0452,0.0384,0.0393,,0.0418,0.0344,0.0459,0.0373,,0.0499,0.0289,0.0376,0.0384,
S18K,0.0942,0.0984,,,,0.0543,,0.11,,0.105,,0.101,0.0847,,0.114,0.0799,0.11,
T70S,0.113,,,0.1,0.0984,0.0954,0.0851,,,0.107,0.114,0.094,0.109,0.0975,,,,0.102
E103L,0.0625,0.131,,0.0941,0.0965,0.109,0.105,0.124,0.135,0.138,0.0988,0.112,0.108,,,,,
L77N,0.0735,0.0639,0.0674,,0.0632,,,,0.0618,0.0665,0.0692,,0.092,,0.106,0.0601,,0.0647
H29D,0.104,0.134,,0.118,0.111,0.137,,0.118,0.141,0.136,0.0899,0.0977,0.116,0.0952,,0.095,,
